Experimental data as given in ChEMBL document CHEMBL4888484, “Replenishing the malaria drug discovery pipeline: Screening and hit evaluation of the MMV Hit Generation Library 1 (HGL1) against asexual blood stage Plasmodium falciparum ,using a nano luciferase reporter read-out” (2022).
About 410 (8.5%) of roughly 4,800 compounds showed an effect of 50% or more. This is one part of the list.

Each compound was assayed on Plasmodium falciparum (assay: Confirmatory screen in NF54 pLDH assay, in single point, at 2uM, 72h). Settings: timepoint 72 hour.
Assay type: functional, Erythrocyte

SMILES | % Inhibition [%]
C[C@@H](CNc1nc(-c2ccccc2)nc2nc(-c3ccc(Cl)cc3)oc12)N1CCCCC1 | 76
O[C@H]1Cc2ccccc2[C@H]1Nc1nc(-c2ccccn2)nc2c1CCNC2 | -7
CC(C)C(NC[C@H]1CCCN1S(C)(=O)=O)c1cc2ccccc2o1 (some centres undefined) | 5
Cn1cnn(CC(=O)N2CCc3ccccc3C2)c1=O | 10
COc1ccc(Nc2nc(C(=O)Nc3ncc(C)s3)cs2)cc1OC | 13
COc1ccc(NS(=O)(=O)c2ccc(NC(=O)CN(c3ccc(F)cc3)S(C)(=O)=O)cc2)cc1 | 12
FC(F)(F)C1CCCC(NCc2c[nH]nc2-c2cccnc2)C1 (centres undefined) | 3
Cc1c(C)n(C[C@H](O)Cn2c(C(F)(F)F)nc3ccccc32)c2c(Cl)cccc12 | -15
CCN(CC)[C@H](CNC(=O)C1=NN(C)C(=O)CC1)Cc1ccccc1 | 13
O=C(O)c1cccc2c(-c3cc(-c4ccccc4)n(-c4ccccc4)n3)ccc(C(=O)O)c12 | 0
CC(C)C(=O)N1CC[C@H](CC(=O)NCc2ccccc2)C1 | 11
CNC(=O)c1nc(C(=O)NCc2ccco2)cs1 | -15
O=C(NCCc1c(Cl)cccc1Cl)[C@@H]1CCCc2[nH]cnc21 | -3
O=C(Nc1ccn(-c2ccccc2)n1)N1CC2CCC(O)CC2C1 (centres undefined) | -3
CC(C)[C@@H]1CN(C(=O)c2ccncc2)c2ccccc2N1 | -10
Cn1nc(C(=O)NCc2cccs2)cc1C(=O)NCc1cccs1 | 5
O=C(NC(N1CCCC1=O)(C(F)(F)F)C(F)(F)F)c1ccco1 | -4
C=CCN(CC=C)S(=O)(=O)c1ccc(S(=O)(=O)NC)cc1 | -10
CCN(CC)S(=O)(=O)c1ccc2c(c1)CCCN2C(=O)c1ccc2ccccc2c1 | 10
O=C(NCc1ccc(F)c(Cl)c1)c1csc(C(=O)NC2CCCC2)n1 | -4
c1ccc(C(c2ccccc2)N2CCN(c3nn4cnnc4c4ccccc34)CC2)cc1 | 65
C[C@@H](CC#N)NC(=O)Nc1cc(-c2ccccc2)ns1 | 17
CC(=O)N(C(C)=O)c1c(-c2ccccc2)nnn1-c1ccccc1 | 10
CC(NC(=O)N[C@@H]1C=C[C@H](CO)C1)c1ccncc1F (some centres undefined) | -4
C[C@@H](CN1CCCCC1)NC(=O)Nc1nc(C(F)(F)F)cs1 | -14

SMILES | % Inhibition [%]
O=C(CNc1ccccc1Nc1ccc(F)cc1F)N1CCNC1=O | 0
Cc1ccc(C)n1-c1ccccc1CNC(=O)c1ccc(C(F)(F)F)cc1 | -6
O=C(Nc1ccc2c(c1)C(=O)N1CCC[C@H]1C(O)=N2)c1c(F)cccc1F | -20
COC(=O)C1(NC(=O)c2scnc2C)CCCCC1 | -5
CC(C)C(C(=O)O)N1Cc2c(cc(O)c3c2OC2(C3)C(C)CCC3C(C)(C)C(O)CCC32C)C1=O (centres undefined) | 5
CCOc1c(Br)cc(Cl)cc1NCC(=O)NC(=O)NC | 14
CC(C)(C)NC(=O)CNc1nnc(C2CC2)s1 | 12
O=C(Nc1[nH]c(=O)ncc1F)c1coc(-c2ccccc2)n1 | 71
Cn1c(C(C)(C)C)nc2cc(NC3CCC4(CC3)OCCO4)ccc21 | -16
CC1CCCN(C2(N3CCCC(C)C3)C(=O)Nc3ccc(F)cc32)C1 (centres undefined) | 19
Cc1ccn([C@@H](C)c2nnc(Nc3ccn(Cc4c(Cl)cccc4Cl)n3)s2)n1 | 3
Cc1cc(C)n(-c2ccc(N3CC4CCC3C4)nc2)n1 (centres undefined) | -2
Cc1cc(NC(=O)[C@H](C)OC(=O)c2ccc3c(c2)OCC(=O)N3)on1 | -19
COc1ccc(-c2cc(C(F)(F)F)nc(-n3nc(-c4cccc(OC)c4)c(Cl)c3-c3cccc(OC)c3)n2)cc1 | 92
CC(C)CN1C(=O)[C@H](Cc2ccccc2)NC12CCN(C(=O)c1ccc(Cl)cc1)CC2 | 11
O=C(Nc1ccccc1N1CCCC1)[C@@H]1Cc2ccccc2O1 | 7
CC(C)(C)c1nc(CNc2ccc(S(=O)(=O)CCO)cc2)no1 | -21
O=C(NCCOc1ccccc1)N1CCN(S(=O)(=O)c2cccc(F)c2)CC1 | 13
Cc1nn(CCC(=O)NC2CCCC2)cc1Br | -12
CCn1cc2c(C(F)F)cc(=O)n(CCC(=O)NCc3ccc(F)cc3)c2n1 | -8
Cc1cc(Br)ccc1CNC(=O)CN1CCCCC1=O | 13
Cn1c(=O)c2c(c(-c3ccccc3)cn2C)n(CC(=O)NCc2ccco2)c1=O | -13
Cc1cc(NS(=O)(=O)c2ccc(Br)cc2)ccc1-c1ccc(C(=O)O)o1 | -11
CC(C)(C)N(CC(N)=O)CC(=O)NC(=O)NC1CCCCC1 | 8
Cc1nn(C)cc1-c1cc(C(F)(F)F)nc(N2CCOCC2)n1 | -11

SMILES | % Inhibition [%]
COc1ccc2oc(-c3ccc(CNC(=O)c4ccccc4)cc3)nc2c1 | 11
Cc1cccc(N2CCN(S(=O)(=O)c3cc(-c4nnc(C)o4)co3)CC2)c1 | -12
CC(C)(C)C1CCC(Nc2cccc(Cl)c2)(c2nnnn2[C@H](/C=C\c2ccc(Cl)cc2Cl)C(C)(C)C)CC1 (some centres undefined) | -13
COc1cc(C(=O)Nc2nnc(-c3ccc(C)s3)[nH]2)on1 | 9
COc1ccc2c(c1)OC13CCN(C)CC1C2C(C(=O)c1ccccc1OC)C(=O)N3 (centres undefined) | 10
Nc1ccc2c(N3CCC(C4OCCO4)CC3)ncnc2n1 | 5
Cc1ccnc(N2CCN(S(=O)(=O)Cc3ccon3)CC2)c1 | 15
CC#CCCC(=O)Nc1ccc(OC)cc1 | 4
N#Cc1ccc(NCc2nccc(N)n2)nc1 | 13
Cn1ncc(NC(=O)Cn2nc(C(F)F)c(Cl)c2C2CC2)c1C(=O)N1CCCCC1 | 5
CCN1CCN(c2cccc(NC(=O)c3ccc4[nH]c5ccccc5c(=O)c4c3)c2)CC1 | 100
Cc1c(N2C(=O)c3ccc(Cl)cc3C2=O)c(=O)n(-c2ccccc2)n1C | -2
COCCNC(=O)c1ccc(-n2nc(-c3nnc(C)o3)c(C)c2-c2ccc(OC)cc2)cc1 | 16
O=S(=O)(Cc1ccccc1)N1CCC(OCCOc2ccc(F)cc2)CC1 | 11
O=C(COc1ccc(Cl)cc1)n1c2ccccc2c2ccccc21 | 7
COc1ccc(NC(=O)CCC(=O)c2ccc3c(c2)OCCCO3)cc1 | -9
C[C@@H](CNC(=O)c1ccncc1F)c1nc2ccccc2s1 | 7
O=C(c1nnn(-c2ccccc2Cl)c1-c1cccnc1)N1CCC(Cc2ccccc2)CC1 | -8
CCC(C)NCC(O)Cn1c(-c2ccccc2)c(-c2ccccc2)c2cc(C)ccc21 (centres undefined) | 92
COc1ccc([C@H]2[C@H](C(=O)NCc3ccc(C)o3)CCC(=O)N2C)cc1 | -20
O=C1NC(=O)C2(CCN(C(=O)C3CC4CCC3C4)CC2)N1 (centres undefined) | 9
COc1ccc(-n2nnnc2[C@@H](NCCc2c[nH]c3ccccc23)C(C)C)cc1 | 7
O=C(CCc1ccccc1)N[C@@H](c1ccccc1)c1ccc2c3c(cccc13)CC2 | -21
Cn1ncn(CC(=O)c2cccc(Cl)c2Cl)c1=O | -14
CC(=O)N[C@@H]1CN(Cc2nccn2Cc2ccccc2)C[C@H]1c1nccn1C | 12

SMILES | % Inhibition [%]
O=C(NCc1cccc(C(F)(F)F)c1)c1csc(C(=O)NC2CCCC2)n1 | -3
O=C1O[C@H](N2CCc3ccccc3C2)c2ccccc21 | 5
O=C(NC1CCCCC1)c1nn(-c2ccccc2)c(=O)c2ccccc12 | -12
Cc1nc(NC(=O)N2CCOCC2CC(O)c2cccs2)sc1C (centres undefined) | 4
COc1ccc(-c2noc(Cn3c(=O)c4ccccc4n(CC(=O)Nc4cc(C)ccc4C)c3=O)n2)cc1 | 3
COc1ccccc1CN(C(=O)c1ccc(C)cc1)c1ccc(CC(=O)NCCN2CCCCC2)cc1 | 40
O=c1c2ccccc2ncn1S(=O)(=O)c1ccc(Cl)cc1 | 17
Cc1c(CCNC(=O)NCC2CC23CCc2ccccc23)cnn1C (centres undefined) | 3
Cc1cc(=O)[nH]c(-n2nc(C3CC3)cc2NC(=O)c2ccc(C(C)(C)C)cc2)n1 | 52
COc1cc(NCC(=O)NC(N)=O)cc(OC)c1OC | -9
CCn1ncc(CN2CC[C@@H]3C(=O)NCCCCCCN(Cc4ccncc4)[C@@H]3C2)c1C | 35
COc1ccc(N(C(=O)c2ccccc2)C2CC(C)N(C(=O)c3ccccc3)c3cc(OC)c(OC)cc32)cc1OC (centres undefined) | 13
CC[N+](C)(CC)CCOc1cc(C)c2ccccc2n1 | 40
CC(C)(C)CC(=O)NC[C@H]1OC[C@@H](NC2CCCC2)[C@@H]1O | 7
O=C(NC[C@H]1CCCO1)c1cc(C(=O)C2CC2)c[nH]1 | -8
Cc1nc(NC(=O)c2ccn(COc3ccc(F)c(Cl)c3)n2)sc1C | -8
CCn1ccnc1C(=O)Nc1ccc(OC)nc1 | 7
CCOC(=O)N1CCN(C(=O)C2[C@H]3C(=O)N(c4ccc(OC)cc4)C[C@]34C=C[C@H]2O4)CC1 (some centres undefined) | 2
O=C(O)c1cc(-c2ccc3c(c2)OCCO3)nc2c(Br)cc(Br)cc12 | 3
CCOc1cccc(-c2ccc3nc(-c4cccc(OC)c4)c(CCC(=O)NCCN4CCCC4)n3c2)c1 | 31
Cn1ccnc1CCNC(=O)C(=O)Nc1cc(F)c(F)c(F)c1 | -12
Cn1c2ccc(Br)cc2c2cc(NS(=O)(=O)c3ccccc3)ccc21 | 3
O=C(NCCc1cc(F)cc(F)c1)C1CC2CCC1C2 (centres undefined) | 10
COC(=O)C[C@H](CC(C)C)c1c(O)n[nH]c1C | -10
